# Source: the supplement of paper PMC8728848
# Some of the results follow.
# Key:
# Assay in all cases: glycan array binding signal (z-score within array); higher = stronger binding
# Conditions in all cases: glycan notation: IUPAC condensed, linker removed
# [1] = molecular target: Fuc(a1-2)Gal
# Outline: (§1)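 The Consortium for Functional Glycomics database supplied 3228 glycan arrays, of which those lacking an available protein sequence were dropped. The binding signal, a within-array Z-score, was averaged across arrays of the same protein sequence and across linkers. Negative scores can be read as non-binding.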
# [2] = molecular target: Fuc(a1-2)Gal(b1-3)GalNAc
# Outline: as §1
# [3] = molecular target: Fuc(a1-2)Gal(b1-3)GalNAc(b1-3)Gal
# Outline: as §1
# [4] = molecular target: Fuc(a1-2)Gal(b1-3)GalNAc(b1-3)Gal(a1-4)Gal(b1-4)Glc
# Outline: as §1
# [5] = molecular target: Fuc(a1-2)Gal(b1-3)GalNAc(b1-4)[Neu5Ac(a2-3)]Gal(b1-4)Glc
# Outline: as §1
# [6] = molecular target: Fuc(a1-2)Gal(b1-3)GlcNAc
# Outline: as §1
# [7] = molecular target: Fuc(a1-2)Gal(b1-3)GlcNAc(b1-2)Man(a1-3)[Fuc(a1-2)Gal(b1-3)GlcNAc(b1-2)Man(a1-6)]Man(b1-4)GlcNAc(b1-4)GlcNAc
# Outline: as §1
# [8] = molecular target: Fuc(a1-2)Gal(b1-3)GlcNAc(b1-3)Gal(b1-4)Glc
# Outline: as §1
# [9] = molecular target: Fuc(a1-2)Gal(b1-3)GlcNAc(b1-3)[Gal(b1-4)[Fuc(a1-3)]GlcNAc(b1-6)]Gal(b1-4)Glc
# Outline: as §1
# [10] = molecular target: Fuc(a1-2)Gal(b1-3)[Fuc(a1-4)]GlcNAc
# Outline: as §1
# [11] = molecular target: Fuc(a1-2)Gal(b1-3)[Fuc(a1-4)]GlcNAc(b1-2)Man(a1-3)[Fuc(a1-2)Gal(b1-3)[Fuc(a1-4)]GlcNAc(b1-2)Man(a1-6)]Man(b1-4)GlcNAc(b1-4)GlcNAc
# Outline: as §1
# [12] = molecular target: Fuc(a1-2)Gal(b1-4)Glc
# Outline: as §1
# [13] = molecular target: Fuc(a1-2)Gal(b1-4)Glc6S
# Outline: as §1
# [14] = molecular target: Fuc(a1-2)Gal(b1-4)GlcNAc
# Outline: as §1
# [15] = molecular target: Fuc(a1-2)Gal(b1-4)GlcNAc(b1-2)Man(a1-3)[Fuc(a1-2)Gal(b1-4)GlcNAc(b1-2)Man(a1-6)]Man(b1-4)GlcNAc(b1-4)GlcNAc
# Outline: as §1
# [16] = molecular target: Fuc(a1-2)Gal(b1-4)GlcNAc(b1-3)Gal(b1-4)GlcNAc
# Outline: as §1
# [17] = molecular target: Fuc(a1-2)Gal(b1-4)GlcNAc(b1-3)Gal(b1-4)GlcNAc(b1-3)Gal(b1-4)GlcNAc
# Outline: as §1
# [18] = molecular target: Fuc(a1-2)Gal(b1-4)GlcNAc6S
# Outline: as §1
# [19] = molecular target: Fuc(a1-2)Gal(b1-4)[Fuc(a1-3)]GlcNAc
# Outline: as §1
# [20] = molecular target: Fuc(a1-2)Gal(b1-4)[Fuc(a1-3)]GlcNAc(b1-2)Man(a1-3)[Fuc(a1-2)Gal(b1-4)[Fuc(a1-3)]GlcNAc(b1-2)Man(a1-6)]Man(b1-4)GlcNAc(b1-4)GlcNAc
# Outline: as §1
# [21] = molecular target: Fuc(a1-2)Gal(b1-4)[Fuc(a1-3)]GlcNAc(b1-3)Gal(b1-4)[Fuc(a1-3)]GlcNAc
# Outline: as §1
# [22] = molecular target: Fuc(a1-2)Gal(b1-4)[Fuc(a1-3)]GlcNAc(b1-3)Gal(b1-4)[Fuc(a1-3)]GlcNAc(b1-3)Gal(b1-4)[Fuc(a1-3)]GlcNAc
# Outline: as §1
# [23] = molecular target: Fuc(a1-2)Gal6S(b1-4)Glc
# Outline: as §1
# [24] = molecular target: Fuc(a1-2)Gal6S(b1-4)Glc6S
# Outline: as §1
# [25] = molecular target: Fuc(a1-2)Gal6S(b1-4)GlcNAc
# Outline: as §1
# [26] = molecular target: Fuc(a1-2)[Gal(a1-3)]Gal
# Outline: as §1
# [27] = molecular target: Fuc(a1-2)[Gal(a1-3)]Gal(b1-3)GlcNAc
# Outline: as §1
# [28] = molecular target: Fuc(a1-2)[Gal(a1-3)]Gal(b1-3)GlcNAc(b1-2)Man(a1-3)[Fuc(a1-2)[Gal(a1-3)]Gal(b1-3)GlcNAc(b1-2)Man(a1-6)]Man(b1-4)GlcNAc(b1-4)GlcNAc
# Outline: as §1
# [29] = molecular target: Fuc(a1-2)[Gal(a1-3)]Gal(b1-4)Glc
# Outline: as §1
# [30] = molecular target: Fuc(a1-2)[Gal(a1-3)]Gal(b1-4)GlcNAc
# Outline: as §1
# [31] = molecular target: Fuc(a1-2)[Gal(a1-3)]Gal(b1-4)GlcNAc(b1-2)Man(a1-3)[Fuc(a1-2)[Gal(a1-3)]Gal(b1-4)GlcNAc(b1-2)Man(a1-6)]Man(b1-4)GlcNAc(b1-4)GlcNAc
# Outline: as §1
# [32] = molecular target: Fuc(a1-2)[Gal(a1-3)]Gal(b1-4)[Fuc(a1-3)]GlcNAc
# Outline: as §1
# [33] = molecular target: Fuc(a1-2)[Gal(a1-4)]Gal(b1-4)GlcNAc
# Outline: as §1
# [34] = molecular target: Fuc(a1-2)[GalNAc(a1-3)]Gal
# Outline: as §1
# [35] = molecular target: Fuc(a1-2)[GalNAc(a1-3)]Gal(b1-3)GlcNAc
# Outline: as §1
# [36] = molecular target: Fuc(a1-2)[GalNAc(a1-3)]Gal(b1-3)GlcNAc(b1-2)Man(a1-3)[Fuc(a1-2)[GalNAc(a1-3)]Gal(b1-3)GlcNAc(b1-2)Man(a1-6)]Man(b1-4)GlcNAc(b1-4)GlcNAc
# Outline: as §1
# [37] = molecular target: Fuc(a1-2)[GalNAc(a1-3)]Gal(b1-4)Glc
# Outline: as §1
# [38] = molecular target: Fuc(a1-2)[GalNAc(a1-3)]Gal(b1-4)GlcNAc
# Outline: as §1
# [39] = molecular target: Fuc(a1-2)[GalNAc(a1-3)]Gal(b1-4)GlcNAc(b1-2)Man(a1-3)[GalNAc(a1-3)[Fuc(a1-2)]Gal(b1-4)GlcNAc(b1-2)Man(a1-6)]Man(b1-4)GlcNAc(b1-4)GlcNAc
# Outline: as §1
# [40] = molecular target: Fuc(a1-2)[GalNAc(a1-3)]Gal(b1-4)GlcNAc(b1-3)Gal(b1-4)GlcNAc
# Outline: as §1
# [41] = molecular target: Fuc(a1-2)[GalNAc(a1-3)]Gal(b1-4)GlcNAc(b1-3)Gal(b1-4)GlcNAc(b1-3)Gal(b1-4)GlcNAc
# Outline: as §1
# [42] = molecular target: Fuc(a1-2)[GalNAc(a1-3)]Gal(b1-4)[Fuc(a1-3)]GlcNAc
# Outline: as §1
# [43] = molecular target: Fuc(a1-2)[GalNAc(a1-4)]Gal(b1-4)GlcNAc
# Outline: as §1
# [44] = molecular target: Fuc(a1-2)[GalNAc(b1-3)]Gal
# Outline: as §1
# [45] = molecular target: Fuc(a1-3)GlcNAc
# Outline: as §1
# [46] = molecular target: Fuc(a1-3)[Gal(b1-4)]Glc6S
# Outline: as §1
# [47] = molecular target: Fuc(a1-3)[Gal(b1-4)]GlcNAc
# Outline: as §1
# [48] = molecular target: Fuc(a1-3)[Gal(b1-4)]GlcNAc(b1-2)Man(a1-3)[Fuc(a1-3)[Gal(b1-4)]GlcNAc(b1-2)Man(a1-6)]Man(b1-4)GlcNAc(b1-4)GlcNAc
# Outline: as §1
# [49] = molecular target: Fuc(a1-3)[Gal(b1-4)]GlcNAc(b1-2)Man(a1-6)[Gal(b1-4)GlcNAc(b1-2)Man(a1-3)]Man(b1-4)GlcNAc(b1-4)GlcNAc
# Outline: as §1
# [50] = molecular target: Fuc(a1-3)[Gal(b1-4)]GlcNAc(b1-3)Gal(b1-3)[Fuc(a1-4)]GlcNAc
# Outline: as §1
# [51] = molecular target: Fuc(a1-3)[Gal(b1-4)]GlcNAc(b1-4)Gal(b1-4)[Fuc(a1-3)]GlcNAc
# Outline: as §1
# [52] = molecular target: Fuc(a1-3)[Gal(b1-4)]GlcNAc(b1-4)Gal(b1-4)[Fuc(a1-3)]GlcNAc(b1-4)Gal(b1-4)[Fuc(a1-3)]GlcNAc
# Outline: as §1
# [53] = molecular target: Fuc(a1-3)[Gal(b1-4)]GlcNAc6S
# Outline: as §1
# [54] = molecular target: Fuc(a1-3)[Gal3S(b1-4)]Glc6S
# Outline: as §1
# [55] = molecular target: Fuc(a1-3)[Gal3S(b1-4)]GlcNAc
# Outline: as §1
# [56] = molecular target: Fuc(a1-3)[Gal3S(b1-4)]GlcNAc6S
# Outline: as §1
# [57] = molecular target: Fuc(a1-3)[GalNAc(b1-4)]GlcNAc
# Outline: as §1
# [58] = molecular target: Fuc(a1-3)[Neu5Ac(a2-3)]Gal(b1-4)GlcNAc(b1-3)GalNAc
# Outline: as §1
# [59] = molecular target: Fuc(a1-4)GlcNAc
# Outline: as §1
# [60] = molecular target: Fuc(b1-3)GlcNAc
# Outline: as §1
binder,measurement,setting,value
"DC-SIGN (Canis lupus), XP_853402 (protein) AGLCRPCPWKWELFQESCYFFSQTQNTWKESISACQNLRAQLVIINSTEEQKFLKSWNTRNNQRTWIGLSDHHNEGSWKWVDNTPLQLSFWKEGEPNNHGDEDCVELYSDGWNDNRCSTENFWICKKPSSPCPGPGLNDIFEAQKIEWHE",glycan array binding signal (z-score),[1],0.091
same,glycan array binding signal (z-score),[2],-0.087
same,glycan array binding signal (z-score),[3],-0.172
same,glycan array binding signal (z-score),[4],-0.352
same,glycan array binding signal (z-score),[5],-0.197
same,glycan array binding signal (z-score),[6],-0.129
same,glycan array binding signal (z-score),[7],0.008
same,glycan array binding signal (z-score),[8],-0.259
same,glycan array binding signal (z-score),[9],-0.172
same,glycan array binding signal (z-score),[10],-0.059
same,glycan array binding signal (z-score),[11],0.148
same,glycan array binding signal (z-score),[12],-0.239
same,glycan array binding signal (z-score),[13],0.108
same,glycan array binding signal (z-score),[14],-0.089
same,glycan array binding signal (z-score),[15],0.078
same,glycan array binding signal (z-score),[16],-0.196
same,glycan array binding signal (z-score),[17],0.003
same,glycan array binding signal (z-score),[18],-0.065
same,glycan array binding signal (z-score),[19],-0.091
same,glycan array binding signal (z-score),[20],-0.021
same,glycan array binding signal (z-score),[21],-0.206
same,glycan array binding signal (z-score),[22],0.056
same,glycan array binding signal (z-score),[23],-0.167
same,glycan array binding signal (z-score),[24],0.124
same,glycan array binding signal (z-score),[25],0.086
same,glycan array binding signal (z-score),[26],-0.256
same,glycan array binding signal (z-score),[27],-0.202
same,glycan array binding signal (z-score),[28],-0.24
same,glycan array binding signal (z-score),[29],0.002
same,glycan array binding signal (z-score),[30],-0.311
same,glycan array binding signal (z-score),[31],-0.305
same,glycan array binding signal (z-score),[32],0.634
same,glycan array binding signal (z-score),[33],-0.31
same,glycan array binding signal (z-score),[34],-0.164
same,glycan array binding signal (z-score),[35],-0.166
same,glycan array binding signal (z-score),[36],-0.276
same,glycan array binding signal (z-score),[37],-0.349
same,glycan array binding signal (z-score),[38],-0.137
same,glycan array binding signal (z-score),[39],-0.235
same,glycan array binding signal (z-score),[40],-0.245
same,glycan array binding signal (z-score),[41],0.504
same,glycan array binding signal (z-score),[42],0.358
same,glycan array binding signal (z-score),[43],-0.23
same,glycan array binding signal (z-score),[44],0.21
same,glycan array binding signal (z-score),[45],0.009
same,glycan array binding signal (z-score),[46],0.089
same,glycan array binding signal (z-score),[47],-0.181
same,glycan array binding signal (z-score),[48],-0.157
same,glycan array binding signal (z-score),[49],-0.15
same,glycan array binding signal (z-score),[50],0.664
same,glycan array binding signal (z-score),[51],0.044
same,glycan array binding signal (z-score),[52],-0.198
same,glycan array binding signal (z-score),[53],-0.096
same,glycan array binding signal (z-score),[54],0.6
same,glycan array binding signal (z-score),[55],0.093
same,glycan array binding signal (z-score),[56],-0.128
same,glycan array binding signal (z-score),[57],-0.178
same,glycan array binding signal (z-score),[58],1.01
same,glycan array binding signal (z-score),[59],-0.225
same,glycan array binding signal (z-score),[60],-0.096
